Over roughly 110,000 compounds, “z-score” has its median near -0.1; the highest 2% begin near 2. Some of the results follow.
biological target: Metabotropic glutamate receptor 8 (Rattus norvegicus) (UniProt P70579); assay: rat mGluR8 modulators via GIRK flux, primary screen, cell-based, thallium flux, HTS (AID 488969); details: HEK293 rat mGluR8, GIRK (G protein-gated inwardly rectifying potassium channel) thallium flux, FluoZin2; at 10 µM; stronger effect = higher value; submaximal glutamate (EC20) added with thallium
Sequence of UniProt P70579 (P70579 whole entry, looked up): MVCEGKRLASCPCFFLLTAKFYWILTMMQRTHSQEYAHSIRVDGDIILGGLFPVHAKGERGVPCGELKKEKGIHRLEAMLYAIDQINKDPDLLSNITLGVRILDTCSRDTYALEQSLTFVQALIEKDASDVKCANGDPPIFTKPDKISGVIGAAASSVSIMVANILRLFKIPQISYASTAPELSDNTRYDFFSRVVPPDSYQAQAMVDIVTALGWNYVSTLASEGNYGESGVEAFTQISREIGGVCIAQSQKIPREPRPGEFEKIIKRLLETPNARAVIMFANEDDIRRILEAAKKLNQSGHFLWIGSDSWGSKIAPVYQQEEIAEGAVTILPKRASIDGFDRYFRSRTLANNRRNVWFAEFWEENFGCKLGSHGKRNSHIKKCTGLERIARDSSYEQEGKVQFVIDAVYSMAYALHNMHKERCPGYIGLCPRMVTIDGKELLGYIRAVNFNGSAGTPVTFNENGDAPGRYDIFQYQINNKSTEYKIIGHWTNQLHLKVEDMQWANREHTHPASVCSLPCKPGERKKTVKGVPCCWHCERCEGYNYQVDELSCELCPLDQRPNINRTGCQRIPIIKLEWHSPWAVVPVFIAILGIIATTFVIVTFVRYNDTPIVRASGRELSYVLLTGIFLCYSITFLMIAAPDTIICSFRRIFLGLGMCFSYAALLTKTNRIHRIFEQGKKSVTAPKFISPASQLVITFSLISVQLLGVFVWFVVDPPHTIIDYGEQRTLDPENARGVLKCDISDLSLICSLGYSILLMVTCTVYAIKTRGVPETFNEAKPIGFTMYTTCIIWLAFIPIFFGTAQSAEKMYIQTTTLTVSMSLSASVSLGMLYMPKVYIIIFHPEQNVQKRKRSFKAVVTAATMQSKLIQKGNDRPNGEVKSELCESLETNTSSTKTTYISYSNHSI

SMILES	z-score
Cc1ccc(OCC(=O)Nc2ccc(S(=O)(=O)N3CCN(C)CC3)cc2)cc1	-0.0465
Cc1ccc2c(c1)C(c1ccccc1)N(C(=O)C(C)C)CC(=O)N2 (stereo unspecified)	-0.0998
COc1cccc(C2=NOC(C(=O)N3CCc4ccccc4C3)C2)c1 (stereo unspecified)	-0.112
CC(=O)C(Sc1ccc2nnc(-c3ccc(F)cc3)n2n1)C(C)=O	-2.82
CCc1cc(C(c2ccccn2)N2CCN(C)CC2)c(NC(=O)c2ccccc2)s1 (stereo unspecified)	0.162
CS(=O)(=O)N(CC(=O)N1CCCCCC1)c1ccccc1	0.048
COc1ccc(NC(=O)CN2CCC3(O)CCCCC3C2c2cc(OC)ccc2OC)cc1 (stereo unspecified)	-0.103
O=C(OCCOCCN=C1NS(=O)(=O)c2ccccc21)C1CC(=O)N(c2ccccc2)C1 (stereo unspecified)	-0.914
CCNc1nc(NC(C)C)nc(OCCOC(=O)Nc2ccccc2)n1	-0.666
O=C1CN2C(=Nc3ccc(Br)cc3C2c2ccccc2)CCN1 (stereo unspecified)	0.574
CCCCCCc1nc2ccccc2c(=O)n1NC(=O)c1c(O)c2c(n(CC(C)C)c1=O)CCCC2	0.0619
O=C(CSc1nc2ccccc2s1)NNC(=S)Nc1ccccc1	0.75
Clc1cc(Br)ccc1OCCCNCc1ccccc1	1.69
CNC(=O)c1ccc(-c2sc3nc(N4CCOCC4)c4c(c3c2N)CC(C)(C)OC4)o1	-0.879
C=CCOc1c(CNn2nnnc2N)cccc1OC	-1.28
N#C/C(=C/Nc1ccccc1)c1ccsc1	0.2
O=C(COC(=O)Cc1ccsc1)NC(c1ccccc1)c1ccccc1	-0.486
COC(=O)c1nnc(-c2ccccc2)c(-c2ccccc2)n1	0.163
COCc1[nH]nc2c1C(c1ccccc1Cl)C(C#N)=C(N)O2 (stereo unspecified)	-1.13

SMILES	z-score
Cc1ccc(C(=O)Cn2c(C(=O)/C=C/c3ccccc3)nc3ccccc32)cc1	0.0797
Cc1ccc(S(=O)(=O)c2c(C)nn(C(C)(C)C)c2OC(=O)C2CCCC2)cc1	-0.0263
CCCCC1CC(/C(C)=N/NC(N)=O)OC1=O (stereo unspecified)	-0.458
CCOC(=O)C1CCN(c2c(N3CCCC(C(=O)OCC)C3)c(=O)c2=O)CC1 (stereo unspecified)	0.103
COC(=O)C(Oc1ccc2c(-c3ccc(OC)cc3)cc(=O)oc2c1)c1ccccc1 (stereo unspecified)	-0.279
CCOc1ccc(OCC)c(NC(=O)C2CCCN2S(=O)(=O)c2cccc3cccnc23)c1 (stereo unspecified)	-0.928
Cc1ccnc(N(C(=O)c2cccs2)C(=O)c2cccs2)c1	-0.0449
C=CCn1c(=O)/c(=C/c2ccc(O)cc2)s/c1=C(/C#N)c1nnc2n1CCCCC2	-1.58
Cc1cnn(CCC(=O)NNC(=S)Nc2cccc(Cl)c2)c1	-0.0279
O=C(Nc1ccc(Oc2cccnc2)cc1)c1ccccc1Cl	-0.172
CC(=O)Nc1ccc(C(=O)n2cnc3cc(C)c(C)cc32)cc1	0.0266
CCCCn1c(=O)n(CC(O)c2ccccc2)c(=O)c2c1ncn2C1CCCC1 (stereo unspecified)	-0.34
Cc1cc(C)nc(SCC(=O)N/N=C/C=C/c2ccccc2)n1	0.0171
O=C(CSc1ncnc2c1nnn2-c1ccc(F)cc1)NCc1ccco1	0.0451
COc1c(C)cccc1C(=O)Nc1cc(Cl)ccc1N1CCOCC1	-0.0675
Cc1ccc(S(=O)(=O)N2CCN(S(C)(=O)=O)C2c2ccccc2)cc1 (stereo unspecified)	-0.283
CC(C)C12CN3CC(C(C)C)(CN(C1)C31C(=O)Nc3ccccc31)C2=O (stereo unspecified)	0.558
O=C(Oc1cccc(-c2cnc3ccccc3n2)c1)c1ccco1	-0.29
O=C(c1cc(-c2cccnc2)nc2ccccc12)N1CCCc2ccccc21	-1.04

SMILES	z-score
O=C(O)CCNS(=O)(=O)c1ccc(Oc2ccccc2)cc1	-0.113
Cc1cccc(OCC(=O)NC(C)C(=O)N/N=C/c2c(OCc3ccccc3)ccc3ccccc23)c1 (stereo unspecified)	-0.18
CCOC(=O)CSc1ncnc2c1cnn2-c1ccc(C)cc1	0.395
c1cc(CNc2ccc(N3CCOCC3)cc2)ccn1	-0.3
Cc1ccc(-n2nc(C)c3c2OC(N)=C(C#N)C3c2ccccc2F)cc1 (stereo unspecified)	0.0632
OC1CCN(C(=S)NCCc2ccccc2)CC1	-0.692
COC(=O)c1ccccc1NC(=O)/C=C/c1cc(OC)c(OC)c(OC)c1	-0.105
CC(CN1CCOCC1)C(=O)c1ccccc1 (stereo unspecified)	-0.0294
Cc1ccc(N2CC(C(=O)N3CCN(c4ccccc4)CC3)CC2=O)cc1 (stereo unspecified)	-0.11
CCCC(CCC(=O)Nc1ccc(S(N)(=O)=O)cc1)C(=O)O (stereo unspecified)	0.0428
COc1ccc(CN(C(C)=O)c2cccc(C)c2C)cc1	-0.144
O=C1CSC(c2ccccc2F)N1c1ccccc1 (stereo unspecified)	0.00473
Cc1cc(NC(=O)CSCC(=O)N(c2cccc(Cl)c2)C(C(=O)NC2CCCCC2)c2ccc(O)c(O)c2)no1 (stereo unspecified)	-0.0665
Cc1cc2occ(CC(=O)NC3CCCc4ccccc43)c2cc1C (stereo unspecified)	0.0042
O=C(Cn1ncc2c1-c1ccccc1OC2)Nc1ccc(S(=O)(=O)N2CCCCC2)cc1	0.0325
COc1ccc(S(=O)(=O)N(C)CC(=O)Nc2ccccc2C(F)(F)F)cc1Cl	0.0193
COC(=O)c1ccccc1NC(=O)c1sc(=S)n(C)c1N	0.0466
COc1cccc(/C=N/Nc2ncnc(Cl)c2N)c1O	-0.0315

Source: PubChem BioAssay AID488969 (Vanderbilt High Throughput Screening Facility, 2010)
